Experimental findings from patent US20220023439A1, “ACTIVATABLE ANTI-CD166 ANTIBODIES AND METHODS OF USE THEREOF” (priority 2018, published 2022) are described below.

The data set in a line: Activated activatable antibody within subjects' tumors (Western blot). The class given is in vivo. The settings on record: human subjects, 4 to 8 mg/kg (AIBW), 11 tumor tissue samples. (A western blot detects proteins with antibodies after separation by electrophoresis.)

B1: Combination 55 (conjugate)
heavy: QITLKESGPTLVKPTQTLTLTCTFSGFSLSTYGMGVGWIRQPPGKALEWLANIWWSEDKHYSPSLKSRLTITKDTSKNQVVLTITNVDPVDTATYYCVQIDYGNDYAFTYWGQGTLVTVSS[skipping human IgG1 constant region]
light: QGQSGQGLCHPAVLSAWESCSSGGGSSGGSAVGLLAPPGGLSGRSDNHGGSDIVMTQSPLSLPVTPGEPASISCRSSKSLLHSNGITYLYWYLQKPGQSPQLLIYQMSNLASGVPDRFSGSGSGTDFTLKISRVEAEDVGVYYCAQNLELPYTFGQGTKLEIKRTVAAPSVFIFPPSDEQLKSGTASVVCLLNNFYPREAKVQWKVDNALQSGNSQESVTEQDSKDSTYSLSSTLTLSKADYEKHKVYACEVTHQGLSSPVTKSFNRGEC
modifications: DM4 via SPDB linker
Consider B1, for which the “Amount of intratumoral activated activatable antibody versus dosage” value is “increased with the initial dosage”.
